We go through 70 molecules from the supplement of paper PMC4723716.

± gives the uncertainty stated by the source. In all, about 9,900 compounds were measured (“viability index relative to DMSO control”: median about 1, lowest 2% from about 0.85 on). Some of the results follow.

This assay concerns Plasmodium falciparum NF54 stage V gametocytes. The experiment in a line: viability index relative to DMSO control (fraction); higher = less gametocyte killing. The settings on record: 2.5 µM, library set: Broad Institute DOS, incubation time: 72 h. In outline: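 P. falciparum NF54 stage V gametocytes in serum-free screening medium (0.75% gametocytemia, 1.25% hematocrit, 10 µl) were incubated with compound at 2.5 µM in 1,536-well plates for 72 hr at 37°C under low oxygen. Then 3 µl of 2.5 µM MitoTracker Red CMXRos plus 0.13% saponin was added for one to two hours. One field per well was imaged, 20–70 µm2 red particles were counted, and the viability index was the count divided by the plate mean of DMSO wells.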
Regarding `O=C(c1ccc2c(c1)OCO2)N1C[C@@H]2N[C@H](C1)[C@@H]2c1ccc(-c2cncnc2)cc1`, the viability index came to 1.08 ± 0.035. As for `COc1cccc(NC(=O)Nc2ccc3c(c2)C(=O)N(C)C[C@H](OC)[C@H](C)CN(CC2CC2)[C@H](C)CO3)c1`, the figure is 0.983 ± 0.021; as for `C[C@@H]1CN([C@@H](C)CO)C(=O)c2c(c3ccccc3n2C)-c2ccccc2CO[C@H]1CN(C)S(=O)(=O)c1ccc([N+](=O)[O-])cc1`, 0.93 ± 0.086. Next, `COc1cccc(C(=O)Nc2ccc3c(c2)C(=O)N(C)[C@@H]2CC[C@@H](CC(=O)N[C@@H](C)c4ccccc4)O[C@H]2CO3)c1`: 1.1 ± 0.086.

On to `O=C(Nc1ccccc1)N1CC(=O)N2[C@H](CO)[C@H](c3ccc(C#CC4CCCCC4)cc3)[C@H]2C1`, for which the viability index came to 0.994 ± 0.049. Next, `COc1ccc2c3c([nH]c2c1)[C@@H](CO)N(Cc1cccnc1)C[C@]31CCN(CC1)C(=O)CN(C)C`: 0.959 ± 0.081; `Cc1noc(C)c1NC(=O)N(C)C[C@@H]1Oc2ccc(NC(=O)CCCN(C)C)cc2C(=O)N([C@@H](C)CO)C[C@H]1C`: 0.914 ± 0.12; `O=S(=O)(Cc1ccccc1)N1[C@H](CO)[C@@H](c2ccccc2)C12CN(CCC(F)(F)F)C2`: 1.14 ± 0.014.

`CCOC(=O)c1cc2c(c(-c3cccc(C#CCN(C)C)c3)n1)[C@@H](CCO)N(S(=O)C(C)(C)C)C2` (stereo not given in full) displayed a viability index of 0.9917 ± 0.0018. As for `N#C[C@H]1[C@H](c2ccccc2-c2ccc(F)cc2)[C@@H](CO)N1C(=O)Cc1cccnc1`, the figure is 1.13 ± 0.083; as for `O=C(C[C@H]1CC[C@@H]2[C@H](COC[C@H](O)CN2CC2CCOCC2)O1)NCC1CCCCC1`, 1.11 ± 0.067. As for `COc1cccc(-c2ccc([C@@H]3[C@@H](C#N)N(C(=O)Cc4ccncc4)[C@@H]3CO)cc2)c1`, the figure is 0.927 ± 0.055; as for `C[C@@H]1CN([C@H](C)CO)C(=O)c2cc(-c3cccc(C#N)c3)cnc2O[C@@H]1CN(C)C(=O)C1CCOCC1`, 1.04 ± 0.017; as for `O=C(C[C@H]1CC[C@@H]2[C@H](COC[C@H](O)CN2Cc2cc(F)ccc2F)O1)NCc1ccc(Oc2ccccc2)cc1`, 1.02 ± 0.028. Next, `COc1ccccc1NC(=O)N1CC(=O)N2[C@H](CO)[C@@H](c3ccc(C#CC(C)C)cc3)[C@H]2C1`: 0.997 ± 0.013; `CS(=O)(=O)Nc1ccc2c(c1)[C@@H]1C[C@@H](CC(=O)NCc3cc(F)ccc3F)O[C@H](CO)[C@@H]1O2`: 1.05 ± 0.0071; `CCS(=O)(=O)Nc1ccc2c(c1)C(=O)N(C)C[C@@H](OC)[C@@H](C)CN(CC1CCCCC1)[C@H](C)CO2`: 1.05 ± 0.016. `O=C(O)C[C@@H]1CC[C@@H]2[C@H](COC[C@@H](O)CN2S(=O)(=O)c2ccc(Oc3ccccc3)cc2)O1` came in with a viability index of 1.05 ± 0.026.

`COc1cccc(NC(=O)Nc2ccc3c(c2)C(=O)N(C)C[C@H](OC)[C@H](C)CN[C@H](C)CO3)c1` yielded a viability index of 1.03 ± 0.07. Next, `CN1c2ccc(-c3ccc(F)cc3)cc2[C@H]2[C@H](CCN2C(=O)Cc2cccnc2)[C@@H]1CO`: 1.099 ± 0.0022; `C[C@H]1CCCCO[C@H](CN(C)C(=O)C2CCCCC2)[C@@H](C)CN([C@@H](C)CO)C(=O)c2cc(NS(=O)(=O)c3ccccc3)ccc2O1`: 0.988 ± 0.11. Next, `CCCNC(=O)C[C@H]1CC[C@H]2[C@@H](COC[C@@H](O)CN2C(=O)c2ccc(F)cc2)O1`: 1.02 ± 0.011; `COc1cccc(-c2ccc3c(c2)[C@@H]2[C@@H](CCN2C(=O)c2ccccc2F)[C@@H](CO)N3C)c1`: 0.921 ± 0.029.

`COc1ccccc1-c1ccc([C@@H]2[C@H]3CNC[C@@H]2N3S(=O)(=O)c2ccc(F)cc2)cc1` returned a viability index of 1.08 ± 0.095. As for `O=C1N[C@H](c2ccccc2)COCc2cn(nn2)CC[C@@H]1Cc1cccc(Cl)c1`, the figure is 1.05 ± 0.057. Next, `CO[C@H]1CN(C)C(=O)c2cc(NC(=O)NC(C)C)ccc2OC[C@H](C)N(C(=O)CN(C)C)C[C@H]1C`: 1.12 ± 0.014. As for `COc1ccc(-c2ccc3c(c2)[C@@H]2[C@@H](CCN2C(=O)Nc2ccccc2OC)[C@@H](CO)N3C)cc1`, the figure is 0.93284 ± 8.2e-05; as for `O=C(c1cccc(F)c1)N1CC2(C1)[C@H](c1ccccc1)[C@@H](CO)N2C(=O)C1CCCCC1`, 1.07 ± 0.08; as for `COc1ccc(CNC(=O)C[C@@H]2C=C[C@@H](NC(=O)c3cccc(F)c3)[C@H](CO)O2)cc1`, 0.871 ± 0.024.

As to `C/C=C/c1cccc(-c2nc(C(=O)NCc3cccc(OC)c3)cc3c2[C@@H](CCO)N([S@](=O)C(C)(C)C)C3)c1`, the viability index amounted to 1.07 ± 0.039.

For `COc1cccc(CNC(=O)C[C@H]2CC[C@@H]3[C@H](COc4ccc(NS(=O)(=O)c5ccccc5F)cc4C(=O)N3C)O2)c1`, the viability index worked out at 0.957 ± 0.072. Next, `COc1ccc2c3c([C@@H](CO)N(CC4CC4)C[C@]33CN(Cc4ccc(F)cc4)C3)n(C)c2c1`: 1.03 ± 0.081; `C[C@@H]1CN([C@H](C)CO)C(=O)CCCn2cc(nn2)CO[C@@H]1CN(C)S(=O)(=O)c1cccc(C#N)c1`: 1.02 ± 0.038; `O=C(NC1CCCCC1)N1[C@@H]2CNC[C@H]1[C@H]2c1ccc(-c2ccccc2F)cc1`: 1.05 ± 0.035. Next, `C[C@@H](NC(=O)C[C@H]1CC[C@H]2[C@@H](COC[C@@H](O)CN2C(=O)Nc2cccc(Cl)c2)O1)c1ccccc1`: 1.06 ± 0.029; `Cc1nn(C)cc1NC(=O)C[C@@H]1CC[C@H]2[C@@H](COc3ccc(NC(=O)c4cccc(F)c4)cc3C(=O)N2C)O1`: 1.12 ± 0.093. `O=C(Nc1ccccc1)N1CC(=O)N2[C@H](CO)[C@@H](c3ccc(C#CC4CCCCC4)cc3)[C@@H]2C1` showed a viability index of 1.04 ± 0.086. In turn, `O=C(Nc1cc(F)ccc1F)N1[C@@H]2CNC[C@H]1[C@H]2c1ccc(/C=C/c2ccccc2)cc1` showed a viability index of 1.056 ± 0.0066. Turning to `Cc1ccccc1-c1ccc2c(c1)O[C@H](CN(C)C(=O)Nc1ccc(C(F)(F)F)cc1)[C@H](C)CN([C@H](C)CO)S2(=O)=O`, the viability index came out at 0.988 ± 0.082.

For `N#C[C@@H]1[C@H](c2ccccc2-c2ccccc2F)[C@H](CO)N1C(=O)Cc1ccccc1`, the viability index turned out to be 1.09 ± 0.087. As for `Cc1ccc(S(=O)(=O)N2C[C@@H](O)COC[C@H]3O[C@H](CC(=O)NCc4ccc5c(c4)OCO5)CC[C@@H]32)cc1`, the figure is 1.01 ± 0.023; as for `C/C=C/c1cccc(-c2nc(C(=O)NC3Cc4ccccc4C3)cc3c2[C@H](CCO)N(C(C)=O)C3)c1`, 0.856 ± 0.066; as for `CO[C@@H]1CN(C)C(=O)c2cc(NC(=O)NC(C)C)ccc2OC[C@H](C)N(C(=O)CN(C)C)C[C@@H]1C`, 1.01 ± 0.063. As for `COc1cccc(CN2[C@@H](CO)[C@@H](c3ccccc3)C23CN(C(=O)C2CCCCC2)C3)c1`, the figure is 1.09 ± 0.058; as for `CO[C@@H]1CC[C@H]2CCOc3ccc(C#N)cc3C(=O)N(C)C[C@@H](c3ccccc3)CC(=O)N(C)C[C@@H]1O2`, 1.05 ± 0.07; as for `COc1ccc(S(=O)(=O)Nc2ccc3c(c2)C(=O)N([C@H](C)CO)C[C@@H](C)[C@H](CN(C)S(=O)(=O)c2ccc(Cl)cc2)OCCCC[C@@H](C)O3)cc1`, 0.887 ± 0.072. Next, `CC(=O)N1CC2(C1)[C@H](c1ccccc1)[C@@H](CO)N2C(=O)Cc1ccccc1`: 1.119 ± 0.0026; `O=C(C[C@@H]1C[C@@H]2c3cc(NC(=O)Nc4ccccc4F)ccc3O[C@@H]2[C@@H](CO)O1)NCc1ccccn1`: 0.981 ± 0.041; `COc1ccc(S(=O)(=O)N(C)C[C@H]2Oc3ccc(N(C)C)cc3CC(=O)N([C@H](C)CO)C[C@H]2C)cc1`: 1.06 ± 0.066. In turn, `CN(C)C(=O)c1ccc(-c2ccc([C@H]3[C@H](CO)N4C(=O)CN(C(=O)CC5CC5)C[C@@H]34)cc2)cc1` came in with a viability index of 0.9587 ± 0.0074. As for `Cc1cccc(S(=O)(=O)N2CC[C@H]3[C@@H](CO)N(C)c4ccc(Br)cc4[C@H]32)c1`, the figure is 1.06 ± 0.012; as for `COc1ccccc1NC(=O)N1[C@H](C#N)[C@H](c2ccccc2)[C@@H]1CO`, 1.01 ± 0.046.

In turn, `COc1ccc2c3c([C@H](CO)N(Cc4cccc(Cl)c4)C[C@]33CCN(CC3)C(=O)C3CC3)n(C)c2c1` gave a viability index of 1.02 ± 0.057. The molecule `O=C(c1ccc2c(c1)OCO2)N1CC[C@@H]2[C@H]1c1cc(C#Cc3ccccc3)ccc1N[C@@H]2CO` came in with a viability index of 1.09 ± 0.036. Consider `COCC(=O)N1[C@H](CO)[C@H]2c3ccccc3N(C(=O)Nc3ccccc3Cl)C[C@H]21`, for which the viability index was found to be 0.929 ± 0.089.

Take `CCCNC(=O)N1C[C@@H]2N[C@H](C1)[C@H]2c1ccc(-c2ccccc2C)cc1`: the viability index was 1.073 ± 0.0012. Next, `CO[C@@H]1CC[C@@H]2CCOc3c(C#N)cccc3C(=O)N(C)C[C@@H](OC)[C@H](C)C(=O)N(C)C[C@@H]1O2`: 1 ± 0.015; `COc1ccc(CNC(=O)C[C@H]2CC[C@H](NC(=O)CN(C)C)[C@H](CO)O2)cc1`: 1.14 ± 0.058. As for `CC(C)[C@@H]1COCn2nncc2CC[C@H](C)C(=O)N1`, the figure is 0.9721 ± 0.0071. `Cc1cccc(S(=O)(=O)N2C[C@H]3[C@@H](c4ccccc42)[C@@H](CO)N3CC2CCCC2)c1` yielded a viability index of 1 ± 0.036. As for `CCC(=O)Nc1ccc2c(c1)C(=O)N(C)C[C@@H](OC)[C@@H](C)CN(C(=O)Cc1cccnc1)[C@H](C)CO2`, the figure is 1.06 ± 0.022; as for `C[C@H](CO)N1C[C@H](C)[C@H](CN(C)Cc2ccc3cccnc3c2)OCc2cnnn2CCCC1=O`, 1.103 ± 0.007; as for `COc1cccc(C(=O)Nc2ccc3c(c2)C(=O)N(C)[C@@H]2CC[C@H](CC(=O)N[C@@H](C)c4ccccc4)O[C@@H]2CO3)c1`, 1.18 ± 0.12. On to `CCC(=O)N1C[C@]2(CCN(CC2)C(=O)Nc2c(C)noc2C)c2c([nH]c3cc(OC)ccc23)[C@@H]1CO`, for which the viability index turned out to be 0.903 ± 0.075. As for `C[C@H]1CN([C@@H](C)CO)C(=O)CCCn2nncc2CO[C@@H]1CN(C)Cc1ccc2c(c1)OCCN2C`, the figure is 0.974 ± 0.065.

Molecule `CC(C)NC(=O)Nc1ccc2c(c1)C(=O)N([C@H](C)CO)C[C@@H](C)[C@H](CN(C)C(=O)C1CCCCC1)OCCCC[C@@H](C)O2` came in with a viability index of 1.08 ± 0.016.

As for `CN1C(=O)c2cc(NS(=O)(=O)CC(F)(F)F)ccc2OC[C@H]2O[C@@H](CC(=O)NCC3CCCCC3)CC[C@@H]21`, the viability index amounted to 1.1 ± 0.038. Next, `CN1C(=O)c2cc(NC(=O)c3cscn3)ccc2OC[C@@H]2O[C@@H](CC(=O)NCc3ccc(Cl)c(Cl)c3)CC[C@H]21`: 0.871 ± 0.12; `C[C@H](CO)N1C[C@H](C)[C@H](CN(C)C(=O)[C@@H](Cc2ccccc2)N(C)C)OCc2ccccc2-c2ccccc2C1=O`: 0.953 ± 0.047; `COc1ccc(CNC(=O)C[C@H]2C=C[C@@H](NC(=O)c3cccc(F)c3)[C@H](CO)O2)cc1`: 1.05 ± 0.017.
